{
  "source": "paper PMC4336329",
  "about": "(PLoS ONE, 2015)",
  "note": "Hit rate of the full screen: of about 310,000 compounds, about 2,200 (0.71%) showed an effect of 50% or more. The effect is printed as a negative number. The list shows a part of the results.",
  "data": [
    {"target": "human ether-à-go-go-related gene (hERG) potassium channel (human, UniProt Q12809)", "sequence (Q12809 whole entry, looked up)": "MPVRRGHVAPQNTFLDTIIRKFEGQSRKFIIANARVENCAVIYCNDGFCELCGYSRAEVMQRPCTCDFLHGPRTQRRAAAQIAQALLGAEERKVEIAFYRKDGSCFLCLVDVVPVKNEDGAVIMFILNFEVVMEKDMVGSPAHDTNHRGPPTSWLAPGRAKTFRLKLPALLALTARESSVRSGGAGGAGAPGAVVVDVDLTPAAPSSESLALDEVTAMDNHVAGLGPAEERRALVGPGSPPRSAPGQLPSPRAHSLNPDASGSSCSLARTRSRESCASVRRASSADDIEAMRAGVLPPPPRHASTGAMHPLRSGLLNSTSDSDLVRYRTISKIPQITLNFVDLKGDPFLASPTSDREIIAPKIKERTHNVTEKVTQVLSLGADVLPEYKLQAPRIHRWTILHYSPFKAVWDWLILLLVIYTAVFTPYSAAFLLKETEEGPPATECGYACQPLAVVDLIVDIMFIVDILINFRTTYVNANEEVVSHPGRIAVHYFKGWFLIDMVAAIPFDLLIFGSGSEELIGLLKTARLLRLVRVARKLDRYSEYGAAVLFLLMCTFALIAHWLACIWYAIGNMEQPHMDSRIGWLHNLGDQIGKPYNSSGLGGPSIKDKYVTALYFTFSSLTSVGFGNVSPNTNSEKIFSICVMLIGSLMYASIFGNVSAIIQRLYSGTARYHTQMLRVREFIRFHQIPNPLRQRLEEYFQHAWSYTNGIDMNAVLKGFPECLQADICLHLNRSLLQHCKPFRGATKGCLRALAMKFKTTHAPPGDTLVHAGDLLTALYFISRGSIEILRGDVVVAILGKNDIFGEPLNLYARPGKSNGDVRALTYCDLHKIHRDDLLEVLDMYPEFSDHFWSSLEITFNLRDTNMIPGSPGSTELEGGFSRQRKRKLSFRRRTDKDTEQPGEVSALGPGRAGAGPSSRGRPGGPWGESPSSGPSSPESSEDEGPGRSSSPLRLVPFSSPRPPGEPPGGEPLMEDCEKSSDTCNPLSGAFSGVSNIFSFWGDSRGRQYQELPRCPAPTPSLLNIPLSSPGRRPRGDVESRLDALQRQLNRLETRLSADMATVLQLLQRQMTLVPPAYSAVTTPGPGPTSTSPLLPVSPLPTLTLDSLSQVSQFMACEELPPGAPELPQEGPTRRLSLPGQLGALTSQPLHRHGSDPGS", "test": "primary screen, population patch clamp on CHO cells stably expressing hERG", "units": {"hERG current change (%, negative = inhibition) at 1uM": "%"}, "values": [
      {"smiles": "O=C(Nc1ccccc1C(=O)NCCc1ccccc1)c1cnccn1", "hERG current change (%, negative = inhibition) at 1uM": 8.26},
      {"smiles": "Cc1nc(SCC(=O)Nc2ccccc2Cl)oc1C", "hERG current change (%, negative = inhibition) at 1uM": 8.91},
      {"smiles": "CC1(C)Cc2nc3sc(C(=O)O)c(N)c3cc2CS1", "hERG current change (%, negative = inhibition) at 1uM": 12.1},
      {"smiles": "COc1ccc(NC(=O)CN(C)C(=O)c2ccc3[nH]c4c(c3c2)CC(C)CC4)cc1", "note": "(centres unmarked)", "hERG current change (%, negative = inhibition) at 1uM": 15.9},
      {"smiles": "CN(CC(=O)Nc1ccc(Cl)c(C(F)(F)F)c1)C(=O)c1cc(=O)[nH]c2ccccc12", "hERG current change (%, negative = inhibition) at 1uM": 14.9},
      {"smiles": "N=c1c(C(=O)NCc2ccccc2)cc2c(=O)n3ccccc3nc2n1Cc1ccco1", "hERG current change (%, negative = inhibition) at 1uM": -75.5},
      {"smiles": "Cc1ccc(CS(=O)(=O)Cc2ccc(C(=O)NCc3cccs3)o2)cc1", "hERG current change (%, negative = inhibition) at 1uM": 2.11},
      {"smiles": "COc1ccc(OC(=O)c2cnc3n(c2=O)CCS3)cc1", "hERG current change (%, negative = inhibition) at 1uM": 9.86},
      {"smiles": "CCOc1ccc(OCC)c(NC(=O)CN(C)S(=O)(=O)c2cccc3nsnc23)c1", "hERG current change (%, negative = inhibition) at 1uM": 2.37},
      {"smiles": "COc1ccc(CC(=O)Nc2cccc(C(=O)Nc3cccc(C)c3)c2)cc1", "hERG current change (%, negative = inhibition) at 1uM": -0.719},
      {"smiles": "CSCCC(NS(=O)(=O)c1cccs1)C(=O)NCc1ccc(C)cc1", "note": "(centres unmarked)", "hERG current change (%, negative = inhibition) at 1uM": 5.07},
      {"smiles": "CCCCCn1nc(C)c(/C=N/NC(=O)c2ccoc2C)c1C", "hERG current change (%, negative = inhibition) at 1uM": -3.38},
      {"smiles": "Cc1c(CN2CCN(CC(C)C)C(CCO)C2)[nH]c2ccc(Cl)cc12", "note": "(centres unmarked)", "hERG current change (%, negative = inhibition) at 1uM": 18.8},
      {"smiles": "Brc1ccccc1C1Nc2cccc3cccc(c23)N1", "hERG current change (%, negative = inhibition) at 1uM": 1.91},
      {"smiles": "COc1ccc(C(CC(=O)NCCCN2CCOCC2)NS(=O)(=O)c2ccc(C)cc2)cc1", "note": "(centres unmarked)", "hERG current change (%, negative = inhibition) at 1uM": -1.31},
      {"smiles": "COc1ccc(C2C=C(c3cccs3)Nc3nc(CCCO)nn32)cc1", "note": "(centres unmarked)", "hERG current change (%, negative = inhibition) at 1uM": -10.3},
      {"smiles": "Cc1c(C(=O)c2ccc(Cl)c([N+](=O)[O-])c2)c2ccccn2c1CCC#N", "hERG current change (%, negative = inhibition) at 1uM": -0.45},
      {"smiles": "CSCCC(NC(=O)c1ccco1)C(=O)NC1CCCCCC1", "note": "(centres unmarked)", "hERG current change (%, negative = inhibition) at 1uM": 7.94},
      {"smiles": "CCOC(=O)c1ccc(S(=O)(=O)N2CCN(C(=O)CSc3nc4ccccc4o3)CC2)cc1", "hERG current change (%, negative = inhibition) at 1uM": 3.06},
      {"smiles": "COc1ccc(-c2cc(=[NH+]c3ccccc3)c3cc(C)ccc3o2)cc1.[O-][Cl+3]([O-])([O-])[O-]", "hERG current change (%, negative = inhibition) at 1uM": 14},
      {"smiles": "CCNS(=O)(=O)c1ccc(CCC(=O)N2CCCC2)cc1", "hERG current change (%, negative = inhibition) at 1uM": 1.09},
      {"smiles": "COc1ccc(CNC(=O)C(c2ccco2)N(Cc2cccs2)C(=O)Cc2cccs2)cc1", "note": "(centres unmarked)", "hERG current change (%, negative = inhibition) at 1uM": 11.5},
      {"smiles": "CN1CCN(C(=O)c2cc3c(n(-c4ccccc4)c2=O)CC(C)(C)CC3=O)CC1", "hERG current change (%, negative = inhibition) at 1uM": 13.6},
      {"smiles": "Cc1cc(C)nc(NNC2=CC(=[N+]3CCCC3)CCC2)n1.[I-]", "hERG current change (%, negative = inhibition) at 1uM": -4.51},
      {"smiles": "Cc1ccccc1Nc1nc(-c2cccnc2)cs1", "hERG current change (%, negative = inhibition) at 1uM": 19.3},
      {"smiles": "COc1ccc(N(CC(=O)NC2CCCC2)C(=O)Cn2nnc(-c3ccc(F)cc3)n2)cc1", "hERG current change (%, negative = inhibition) at 1uM": 8.35},
      {"smiles": "CC(=O)Oc1ccccc1C1=NN(C(C)=O)C(c2ccccc2)C1", "note": "(centres unmarked)", "hERG current change (%, negative = inhibition) at 1uM": 0.781},
      {"smiles": "COc1ccc(/C=C(\\C#N)C(=O)Nc2cccnc2)cc1", "hERG current change (%, negative = inhibition) at 1uM": 5.31},
      {"smiles": "O=c1[nH]nc(Cc2ccc(Cl)cc2)c2ccccc12", "hERG current change (%, negative = inhibition) at 1uM": 14},
      {"smiles": "CSc1ccc(CN(C)C(=O)c2cc(Cl)c3c(c2)OCCO3)cc1", "hERG current change (%, negative = inhibition) at 1uM": 9},
      {"smiles": "O=C(CCNC(=O)c1ccc([N+](=O)[O-])cc1)Nc1ccc(F)cc1", "hERG current change (%, negative = inhibition) at 1uM": -5.13},
      {"smiles": "COc1ccc(-c2nc(=S)c3c(n2CCN2CCOCC2)CC(C)(C)OC3)cc1", "hERG current change (%, negative = inhibition) at 1uM": 9.18},
      {"smiles": "O=C(N/N=C/c1ccncc1)NC12CC3CC(CC(C3)C1)C2", "hERG current change (%, negative = inhibition) at 1uM": -1.81},
      {"smiles": "NC(=O)c1cc2ccccc2o/c1=N\\NC(=O)c1ccc(F)cc1", "hERG current change (%, negative = inhibition) at 1uM": 0.506},
      {"smiles": "CSC1=NP(=S)(SC)N2CCCC2=C1C#N", "note": "(centres unmarked)", "hERG current change (%, negative = inhibition) at 1uM": 6.13},
      {"smiles": "Cc1ccccc1C(=O)O/N=C(\\N)Cc1cccs1", "hERG current change (%, negative = inhibition) at 1uM": 13.7},
      {"smiles": "COc1ccc(CN2CCNC(=O)C2CC(=O)NCCCn2cccn2)c(OC)c1", "note": "(centres unmarked)", "hERG current change (%, negative = inhibition) at 1uM": 7.05},
      {"smiles": "CCCCOc1ccc(/C=C/C(=O)NCCc2nc3ccccc3[nH]2)cc1", "hERG current change (%, negative = inhibition) at 1uM": -8.64},
      {"smiles": "O=C(N/N=C/CCc1ccccc1)c1ccccc1", "hERG current change (%, negative = inhibition) at 1uM": 3.56},
      {"smiles": "CCC(Sc1nccn1C)C(=O)Nc1nnc(C)s1", "note": "(centres unmarked)", "hERG current change (%, negative = inhibition) at 1uM": 4.96},
      {"smiles": "O=C(NC(Cc1ccccc1)c1nc2ccccc2[nH]1)c1cccc([N+](=O)[O-])c1", "note": "(centres unmarked)", "hERG current change (%, negative = inhibition) at 1uM": 16.6},
      {"smiles": "Cc1ccc(CN2[C@@H](CC(C)C)COCCS2(=O)=O)cc1", "hERG current change (%, negative = inhibition) at 1uM": 12.4},
      {"smiles": "Cc1ccc(NC(=O)c2cccc(NC3=NC4CS(=O)(=O)CC4S3)c2)cc1C", "note": "(centres unmarked)", "hERG current change (%, negative = inhibition) at 1uM": 7.38},
      {"smiles": "Cc1ccc2cc(/C=N/NC(=O)CN3CCOCC3)c(Cl)nc2c1", "hERG current change (%, negative = inhibition) at 1uM": 0.498},
      {"smiles": "CCCCn1nnc(NC(=O)c2sc3cc(Cl)ccc3c2Cl)n1", "hERG current change (%, negative = inhibition) at 1uM": 17.6},
      {"smiles": "CCc1ccc(NC2=NC(C(=O)c3ccccc3)CC(=O)N2)cc1", "note": "(centres unmarked)", "hERG current change (%, negative = inhibition) at 1uM": 3.9},
      {"smiles": "COc1ccc(CN(C)S(=O)(=O)c2nnc(NC(=O)c3ccc(C)cc3)s2)cc1OC", "hERG current change (%, negative = inhibition) at 1uM": 14.5},
      {"smiles": "COc1ccc(C(=O)N2CCCN(C)CC2)cc1S(=O)(=O)N1CCCc2ccccc21", "hERG current change (%, negative = inhibition) at 1uM": 1.09},
      {"smiles": "CN(C)S(=O)(=O)c1ccc(NC(=O)CN2CCCCCC2)cc1", "hERG current change (%, negative = inhibition) at 1uM": 42.9},
      {"smiles": "CCOC(=O)N1CCN(C(=O)CSc2nc(=O)n3ccccc3n2)CC1", "hERG current change (%, negative = inhibition) at 1uM": 14.6},
      {"smiles": "Nc1cccc(-c2cn3cc(C(F)(F)F)cc(Cl)c3n2)c1", "hERG current change (%, negative = inhibition) at 1uM": 2.23},
      {"smiles": "CCC1CCCCN1CCCNC(=O)C1CCCN(c2nn3c(=O)cc(C)nc3s2)C1", "note": "(centres unmarked)", "hERG current change (%, negative = inhibition) at 1uM": 26.6},
      {"smiles": "COCCN(C(=O)CSc1nnc(-c2ccc(C(C)(C)C)cc2)n1N)c1c(N)n(CC(C)C)c(=O)[nH]c1=O", "hERG current change (%, negative = inhibition) at 1uM": 9.94},
      {"smiles": "CN(C)c1ccc(/C=C2\\CCC/C(=C\\c3ccccc3)C2=O)cc1", "hERG current change (%, negative = inhibition) at 1uM": -0.22},
      {"smiles": "O=C(NCc1ccncc1)C(=O)NCC(c1ccco1)N1CCN(c2ccccc2F)CC1", "note": "(centres unmarked)", "hERG current change (%, negative = inhibition) at 1uM": 9.04},
      {"smiles": "O=C(c1cccc(S(=O)(=O)N2CCCC2)c1)N1CCN(c2ccccc2)CC1", "hERG current change (%, negative = inhibition) at 1uM": 5.25}
    ]}
  ]
}
